# Assay results: the supplement of paper PMC12217912
# The other results are listed elsewhere or left out. The full chains were built here from the parent and the listed change. Values near 0.05 are background.
# B1: TEV protease; numbered along this chain (parent)
# chain: MGESLFKGPRDYNPISSSICHLTNESDGHTTSLYGIGFGPFIITNKHLFRRNNGTLVVQSLHGVFKVKDTTTLQQHLVDGRDMIIIRMPKDFPPFPQKLKFREPQREERICLVTTNFQTKSMSSMVSDTSCTFPSGDGIFWKHWIQTKDGQCGSPLVSTRDGFIVGIHSASNFTNTNNYFTSVPKNFMELLTNQEAQQWVSGWRLNADSVLWGGHKVFMVKPEEPFQPVKEATQL
# Variants of: B1
# Test: raw area under fraction-flipped curve 0-4 h after induction (AUC4h, not background-subtracted), DNA-recorder readout of cleavage of the substrate (dimensionless); higher = more cleavage of the substrate by the protease variant
# Settings: temperature: 34 °C; time window: 0-4 h after rhamnose induction
# 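Also: Bxb1 expression induced with 0.2% (w/v) L-rhamnose at OD600 near 0.5, cultures sampled hourly, flipped fraction per protease–substrate barcode pair counted by paired-end Illumina sequencing.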
Variant,area with substrate EALYFQS,area with substrate ECLYFQS,area with substrate EELYFQS,area with substrate EHLYFQS,area with substrate EILYFQS,area with substrate EKLYFQS,area with substrate EMLYFQS,area with substrate EPLYFQS,area with substrate EQLYFQS,area with substrate ESLYFQS,area with substrate ETLYFQS,area with substrate EVLYFQS,area with substrate ELLYFQS,area with substrate ERLYFQS,area with substrate EWLYFQS,area with substrate EYLYFQS,area with substrate EDLYFQS,area with substrate EFLYFQS,area with substrate EGLYFQS
Q234S,0.0862,0.0976,0.0919,0.0992,0.1,0.0906,0.137,0.109,0.115,0.113,0.117,0.117,,,,,,,
Q234V,0.0848,,0.101,,0.101,,,,,0.0767,,0.0772,0.0981,0.0598,0.0804,0.0691,,,
Q234T,0.114,,0.109,,0.0839,,0.124,0.107,0.113,0.115,,0.0792,0.0959,0.106,0.097,,0.107,0.0874,0.125
L235Q,0.107,0.0987,,0.121,0.0916,0.0974,0.114,0.159,0.149,0.122,,0.111,,,,0.0995,,0.133,
L235E,0.137,0.106,,,,,,,,0.104,,,,,0.0724,,,,
T233Q,0.153,0.114,,,0.0855,,,,,,0.113,0.127,,0.0985,,0.124,,,0.109
